{"source": "PubChem BioAssay AID651820", "about": "(National Center for Advancing Translational Sciences (NCATS), 2012)", "note": "The whole screen tested about 340,000 compounds, of which about 12,000 (3.5%) were called active. Inconclusive results, whose numbers are uncertain, are shown with a selection of clear calls. The call rests on the fitted dose curve; in most records, active means well fitted inhibition curve with a large enough effect; inconclusive means small, poorly fitted or top-dose-only effect, or another doubt; inactive means no such curve, though single readings can be large or run the other way. No potency is given beside an inconclusive call; the fits are too rough. On the % scale 0 is the no-effect control and ±100 the full control effect; potency means the concentration at half of the fitted maximal effect; tags describe the fitted curve by direction and shape."}
{"experiment": "qHTS Assay for Inhibitors of Hepatitis C Virus (HCV)", "settings": "Huh7.5.1 HCVcc-Cre (HCVcc is cell-culture hepatitis C virus) infection, luciferase reporter, 44 h; activity change, negative = inhibition: at 41.8 µM (top of the series) unless noted", "procedure,_shortened": "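After 44 h co-culture of compound, cells and HCVcc-Cre (~0.5 moi), substrate is added for 15 min at room temperature and luciferase measured over 15 sec. Cells were seeded at 1,000/well and pre-cultured 4 h.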"}
{"smiles": "CCC(C)(C)NC(=O)Nc1cc(Cl)ccc1OC", "Potency": "inconclusive [inhibitor, single point]"}
{"smiles": "Cc1cc2oc(C(=O)N(Cc3ccccc3)C3CCS(=O)(=O)C3)cc(=O)c2cc1Cl", "note": "(stereo unspecified)", "activity change, negative = inhibition": "inactive: 0.886%"}
{"smiles": "Cc1cc(C)c2c(CN3CCN(C/C=C/c4ccccc4)CC3)cc(=O)oc2c1", "Potency": "inconclusive [inhibitor, partial curve]"}
{"smiles": "COc1ccc(CC(=O)Nc2c(C(N)=O)oc3ccccc23)cc1", "Potency": "inconclusive [inhibitor, single point]"}
{"smiles": "Cc1cc(C)n(-c2nnc(N3CCN(c4ccc(F)cc4)CC3)nn2)n1", "activity change, negative = inhibition": "inactive: -11.1%"}
{"smiles": "O=C(NCc1ccc(N2CCCC2=O)cc1)Nc1cccc(Cl)c1", "Potency": "inconclusive [inhibitor, single point]"}
{"smiles": "CN(C)S(=O)(=O)c1ccc(N2CCCC2)c(C(=O)Nc2nc(-c3cc(F)ccc3F)cs2)c1", "Potency": "inconclusive [inhibitor, partial curve]"}
{"smiles": "CCCN1CCN(c2ncnc3scc(C4COc5ccccc5O4)c23)CC1", "note": "(stereo unspecified)", "Potency": "inconclusive [inhibitor, single point]"}
{"smiles": "Cc1ccc(C(=O)OCC(=O)NC2CCCCCC2)c(C)c1", "Potency": "inconclusive [inhibitor, single point]"}
{"smiles": "O=[N+]([O-])c1ccc(N2CCNCC2)cc1NCc1ccco1", "Potency": "inconclusive [inhibitor, single point]"}
{"smiles": "CC(=O)Nc1ccc(NC(=O)C(Sc2ccccc2)c2ccccc2)cc1", "note": "(stereo unspecified)", "activity change, negative = inhibition": "inactive: -11.8%"}
{"smiles": "CCOC(=O)C(CCCOc1ccccc1C)C(=O)OCC", "Potency": "inconclusive [inhibitor, single point]"}
{"smiles": "COc1ccc([C@H]2/C=C\\CN(C(=O)c3ccccc3)[C@@H](C)C(=O)N2Cc2ccc(F)cc2)cc1", "Potency": "inconclusive [inhibitor, single point]"}
{"smiles": "O=C(NCc1ccc2c(c1)OCO2)C1CCCN(S(=O)(=O)c2cccs2)C1", "note": "(stereo unspecified)", "Potency": "inconclusive [inhibitor, single point]"}
{"smiles": "CCOc1ccc(NC(=O)COC(=O)c2cc(C)oc2C)cc1", "Potency": "inconclusive [inhibitor, full curve, poor fit]"}
{"smiles": "Oc1ccccc1/C=C/c1noc(-c2ccccc2O)n1", "Potency": "inconclusive [inhibitor, full curve]"}
{"smiles": "CCOC(=O)c1sc(NC(=O)C(C)Sc2nnc(N)s2)nc1C", "note": "(stereo unspecified)", "Potency": "inconclusive [inhibitor, single point]"}
{"smiles": "Cc1cc2c(N=NC(=O)CCc3ccccc3)c(O)[nH]c2cc1Br", "Potency": "inconclusive [inhibitor, single point]"}
{"smiles": "Cc1cccc(N/C=C/C(=O)c2cccs2)c1C", "Potency": "inconclusive [inhibitor, single point]"}
{"smiles": "CCc1ccc(NC(=O)CSc2nc3ccccc3c(=O)n2CCCN2CCC(C)CC2)cc1", "Potency": "inconclusive [inhibitor, single point]"}
{"smiles": "COc1ccccc1NC(=O)C1CCCN1S(=O)(=O)c1cccc2nsnc12", "note": "(stereo unspecified)", "activity change, negative = inhibition": "inactive: -12.9%"}
{"smiles": "CCOc1ccc(-c2nc3scc(-c4cccs4)c3c(=O)[nH]2)cc1", "Potency": "inconclusive [inhibitor, full curve, poor fit]"}
{"smiles": "CCc1nnc(NC(=O)CSc2nccn2-c2cccc(C)c2)s1", "activity change, negative = inhibition": "inactive: 4.68%"}
{"smiles": "Cc1cc(C(=O)N/N=C/C=C/c2ccccc2[N+](=O)[O-])c(C)o1", "activity change, negative = inhibition": "inactive: -12.4%"}
{"smiles": "Fc1ccc(NC(=S)N2CCCN(c3ccc(C(F)(F)F)cn3)CC2)c(F)c1", "Potency": "active: 0.501 µM"}
{"smiles": "COc1ccc(NC(=O)NCc2ccco2)c(OC)c1", "Potency": "inconclusive [inhibitor, single point]"}
{"smiles": "O=C(COC(=O)c1ccc(O)cc1)Nc1cc(S(=O)(=O)N2CCOCC2)ccc1Cl", "activity change, negative = inhibition": "inactive: -6.94%"}
{"smiles": "O=C(CCC1CCCCC1)Nc1ccccc1O", "activity change, negative = inhibition": "inactive: -5.36%"}
{"smiles": "COc1cc2c(cc1OC)CN(C(=S)Nc1ccccc1Cl)CC2", "Potency": "inconclusive [inhibitor, single point]"}
{"smiles": "Cc1ccc(N(CCC#N)C(=O)COC(=O)c2ccccc2SCC(=O)N2CCCC2)cc1", "Potency": "inconclusive [inhibitor, single point]"}
{"smiles": "Cc1cc(C)cc(N(CC(=O)Nc2cccc(C)n2)S(=O)(=O)c2c(C)noc2C)c1", "Potency": "inconclusive [inhibitor, single point]"}
{"smiles": "CN(C)c1ccc(/C=N/OC(=O)Nc2ccccc2)cc1", "activity change, negative = inhibition": "inactive: -12.1%"}
{"smiles": "CCOc1ccccc1N(C)C(=O)CCS(=O)(=O)c1ccc2c(c1)NC(=O)C(C)S2", "note": "(stereo unspecified)", "Potency": "inconclusive [inhibitor, single point]"}
{"smiles": "COc1ccc(-c2ccc3oc(-c4ccc(OC)cc4)c(C#CC4(O)CCCCC4)c3c2)cc1", "Potency": "inconclusive [inhibitor, full curve]"}
{"smiles": "COc1ccc(C2(c3ccc(OC)cc3)NC(=O)N(Cn3nnc4ccccc4c3=O)C2=O)cc1", "Potency": "inconclusive [inhibitor, single point]"}
{"smiles": "O=C(NCc1ccc2c(c1)OCO2)c1ccc(Cl)s1", "Potency": "inconclusive [inhibitor, single point]"}
{"smiles": "Cc1nc2ccccc2n1C1CCN(CC(=O)Nc2ccccc2Br)CC1", "Potency": "inconclusive [inhibitor, single point]"}
{"smiles": "CCCCNCC(=O)Nc1ccc(NC(=O)CNCCCC)cc1", "Potency": "inconclusive [inhibitor, partial curve]"}
{"smiles": "O=C1/C(=C/c2cccs2)N=C(c2cccs2)N1Nc1ccccc1", "Potency": "active: 14.1 µM"}
{"smiles": "O=S(=O)(NC1CCCC1)c1ccc(S(=O)(=O)N2CCc3ccccc32)cc1", "Potency": "inconclusive [inhibitor, full curve]"}
{"smiles": "O=C(Nc1ccc2nc(-c3ccco3)c(-c3ccco3)nc2c1)N1CCN(c2ccccn2)CC1", "Potency": "active: 7.94 µM"}
{"smiles": "CCOC(=O)C1=C(C)NC2=C(C(=O)CC(C)(C)C2)C1c1ccc2c(c1)CCCN2C", "note": "(stereo unspecified)", "Potency": "inconclusive [inhibitor, single point]"}
{"smiles": "Cc1nn(Cc2ccc(Cl)cc2Cl)c(Cl)c1C(=O)NC1CCCc2ccccc21", "note": "(stereo unspecified)", "activity change, negative = inhibition": "inactive: 0.343%"}
{"smiles": "O=C(Nc1cccc2ccccc12)C1CCN(C(=O)NCc2ccccc2)CC1", "Potency": "inconclusive [inhibitor, single point]"}
{"smiles": "CC(=O)Nc1ccc(NC(=O)Cn2c(CC(=O)N3CCCC3)nc3ccccc32)cc1", "activity change, negative = inhibition": "inactive: 6.9%"}
{"smiles": "CCCC(=O)O[C@@H]1C[C@@H](C)N(C(=O)c2ccccc2)c2ccc(C)cc21", "Potency": "inconclusive [inhibitor, single point]"}
{"smiles": "CCc1ccc(OCC(=O)Nc2ccc(S(=O)(=O)N3CCCC3)cc2)c(Br)c1", "Potency": "inconclusive [inhibitor, partial curve]"}
{"smiles": "CCCNC(=O)c1ccc(S(=O)(=O)c2ccc(OC)cc2)c([N+](=O)[O-])c1", "Potency": "inconclusive [inhibitor, single point]"}
{"smiles": "CCCc1c(C(=O)Nc2ccc(C(F)(F)F)cc2)cnn1-c1ccccc1", "Potency": "inconclusive [inhibitor, single point]"}
{"smiles": "Cc1nn(Cc2nnc(SCC(=O)Nc3ccc(Cl)cc3)n2C)c(C)c1[N+](=O)[O-]", "Potency": "inconclusive [inhibitor, full curve, poor fit]"}
{"smiles": "C#CCOCCOCCOCCNc1nc(N2CCOCC2)nc(N2CCN(C(=O)[C@H](Cc3cc4ccccc4[nH]3)n3cc([C@@H](N)C(C)CC)nn3)CC2)n1", "note": "(stereo partly specified)", "activity change, negative = inhibition": "inactive: 3.66%"}
{"smiles": "CC(C)CNC(=O)c1c2c(nc3ccccc13)-c1ccccc1CC2", "activity change, negative = inhibition": "inactive: -17%"}
{"smiles": "COc1ccc(N2C(=O)CC(N3CCC(O)(c4cccc(C(F)(F)F)c4)CC3)C2=O)cc1", "note": "(stereo unspecified)", "activity change, negative = inhibition": "inactive: -8.56%"}
{"smiles": "Cc1c2c(nc3ccccc13)CCC(C(C)(C)C)C2", "note": "(stereo unspecified)", "Potency": "inconclusive [inhibitor, single point]"}
{"smiles": "Cc1ccc(CN(Cc2ccco2)S(=O)(=O)c2ccc(S(=O)(=O)NCC3CCCO3)cc2)cc1", "note": "(stereo unspecified)", "Potency": "inconclusive [inhibitor, single point]"}
{"smiles": "Cc1ccc(CNC(=O)c2cc(=O)c3ccccc3o2)cc1", "Potency": "inconclusive [inhibitor, partial curve]"}
{"smiles": "CN(C)c1nc2c(N)ncnc2n1[C@H]1O[C@@H](CO)[C@H](O)[C@@H]1O", "activity change, negative = inhibition": "inactive: 16.1%"}
{"smiles": "COc1cccc(N2CCN(C(=O)c3ccccc3SCC(=O)NCc3ccco3)CC2)c1", "Potency": "inconclusive [inhibitor, single point]"}
{"smiles": "Cc1oc2cc3oc(=O)c(CCC(=O)NCCCN4CCOCC4)c(C)c3cc2c1C", "Potency": "active: 1.58 µM"}
{"smiles": "C[C@@H]1CN([C@@H](C)CO)C(=O)c2cc(NC(=O)Nc3ccc(F)cc3)ccc2O[C@@H]1CN(C)Cc1ccc(Oc2ccccc2)cc1", "Potency": "inconclusive [inhibitor, partial curve]"}
{"smiles": "CCc1ccc(NC(=O)CSC2=C(C#N)C(c3ccc4c(c3)OCO4)CC(=O)N2)cc1", "note": "(stereo unspecified)", "Potency": "active: 11.2 µM"}
{"smiles": "COCc1nnc(NC(=O)CCC2CCCCC2)s1", "Potency": "inconclusive [inhibitor, single point]"}
{"smiles": "COc1ccc(C(=O)C2CCN(C(=S)NCCc3ccc(OC)c(OC)c3)CC2)cc1", "Potency": "inconclusive [inhibitor, full curve, poor fit]"}
{"smiles": "O=C(c1ccco1)N1CCN(C(=O)N2c3ccccc3Sc3ccccc32)CC1", "Potency": "inconclusive [inhibitor, full curve]"}
{"smiles": "CC(C)CNC(=O)c1cccc(NC(=O)COc2cccc([N+](=O)[O-])c2)c1", "Potency": "inconclusive [inhibitor, partial curve]"}
{"smiles": "Cc1cccc(C(=O)O/N=C(\\N)c2cccc([N+](=O)[O-])c2)c1", "Potency": "inconclusive [inhibitor, single point]"}
